# In the supplement of paper PMC8728848:
# The other results are listed elsewhere or left out.
# B1: LEA (Lycopersicon esculentum) (protein)
# chain: NEVFDVPMNETIGVESINASVGGYPRCGAQGDGGNCPSGMCCSVWGWCGKTYGYCAPQNCQKQCPAPYPEGRCGWQADGKSCPNGKCCSYGGWCGTTSDYCARQNCQKQCILPSPPPPPPPPPGFPRPECGLQKNGERCTKPGECCSIWGLCGATYKYCDPQHCQKQCSAPFPPGRCGWQADGRPCPTGQCCSFSGWCGTTSAHCTYPQCVSQCNDPRFPSSLNNRIQSFML
# Key:
# Test in all cases: glycan array binding signal (z-score within array); higher = stronger binding
# Settings in all cases: glycan notation: IUPAC condensed, linker removed
# [1] = target: Gal(b1-4)GlcNAc(b1-6)GalNAc
# Summary of the method: (§1)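 Glycan array binding is given as a within-array Z-score, which can be read as non-binding when negative. The arrays, 3228 of them, came from the Consortium for Functional Glycomics database and were retained only where the protein sequence was available. Z-scores were averaged across arrays of the same protein sequence at different concentrations or buffers and across linkers.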
# [2] = target: Gal(b1-4)GlcNAc(b1-6)[Gal(b1-3)]GalNAc
# Summary of the method: as §1
# [3] = target: Gal(b1-4)GlcNAc(b1-6)[Gal(b1-3)]GlcNAc
# Summary of the method: as §1
# Gal3S(b1-3)GalNAc = target: Gal3S(b1-3)GalNAc
# Summary of the method: as §1
# Gal3S(b1-3)GlcNAc = target: Gal3S(b1-3)GlcNAc
# Summary of the method: as §1
# [4] = target: Gal3S(b1-3)[Fuc(a1-4)]GlcNAc
# Summary of the method: as §1
# Gal3S(b1-4)Glc = target: Gal3S(b1-4)Glc
# Summary of the method: as §1
# Gal3S(b1-4)Glc6S = target: Gal3S(b1-4)Glc6S
# Summary of the method: as §1
# Gal3S(b1-4)GlcNAc = target: Gal3S(b1-4)GlcNAc
# Summary of the method: as §1
# Gal3S(b1-4)GlcNAc6S = target: Gal3S(b1-4)GlcNAc6S
# Summary of the method: as §1
# Gal3S6S(b1-4)GlcNAc = target: Gal3S6S(b1-4)GlcNAc
# Summary of the method: as §1
# Gal3S6S(b1-4)GlcNAc6S = target: Gal3S6S(b1-4)GlcNAc6S
# Summary of the method: as §1
# Gal4S(b1-4)GlcNAc = target: Gal4S(b1-4)GlcNAc
# Summary of the method: as §1
# Gal4S6S(b1-4)GlcNAc = target: Gal4S6S(b1-4)GlcNAc
# Summary of the method: as §1
# Gal6S(b1-4)Glc = target: Gal6S(b1-4)Glc
# Summary of the method: as §1
# Gal6S(b1-4)Glc6S = target: Gal6S(b1-4)Glc6S
# Summary of the method: as §1
# Gal6S(b1-4)GlcNAc = target: Gal6S(b1-4)GlcNAc
# Summary of the method: as §1
# GalNAc(a1-3)Gal = target: GalNAc(a1-3)Gal
# Summary of the method: as §1
# GalNAc(a1-3)GalNAc = target: GalNAc(a1-3)GalNAc
# Summary of the method: as §1
# [5] = target: GalNAc(b1-3)Gal(a1-4)Gal(b1-4)GlcNAc
# Summary of the method: as §1
# GalNAc(b1-4)GlcNAc = target: GalNAc(b1-4)GlcNAc
# Summary of the method: as §1
# Glc(a1-4)Glc = target: Glc(a1-4)Glc
# Summary of the method: as §1
# Glc(a1-6)Glc(a1-6)Glc = target: Glc(a1-6)Glc(a1-6)Glc
# Summary of the method: as §1
# Glc(b1-4)Glc = target: Glc(b1-4)Glc
# Summary of the method: as §1
# Glc(b1-6)Glc = target: Glc(b1-6)Glc
# Summary of the method: as §1
# GlcA(b1-3)Gal = target: GlcA(b1-3)Gal
# Summary of the method: as §1
# GlcA(b1-6)Gal = target: GlcA(b1-6)Gal
# Summary of the method: as §1
# [6] = target: GlcNAc(a1-3)Gal(b1-4)GlcNAc
# Summary of the method: as §1
# [7] = target: GlcNAc(a1-6)Gal(b1-4)GlcNAc
# Summary of the method: as §1
# [8] = target: GlcNAc(b1-2)Gal(b1-3)GlcNAc
# Summary of the method: as §1
# [9] = target: GlcNAc(b1-2)Man(a1-3)[GlcNAc(b1-2)Man(a1-6)]Man(b1-4)GlcNAc(b1-4)GlcNAc
# Summary of the method: as §1
# GlcNAc(b1-3)Gal = target: GlcNAc(b1-3)Gal
# Summary of the method: as §1
# [10] = target: GlcNAc(b1-3)Gal(b1-3)GalNAc
# Summary of the method: as §1
# GlcNAc(b1-3)Gal(b1-4)Glc = target: GlcNAc(b1-3)Gal(b1-4)Glc
# Summary of the method: as §1
# [11] = target: GlcNAc(b1-3)Gal(b1-4)GlcNAc
# Summary of the method: as §1
# [12] = target: GlcNAc(b1-3)Gal(b1-4)GlcNAc(b1-3)Gal(b1-4)GlcNAc
# Summary of the method: as §1
# GlcNAc(b1-3)GalNAc = target: GlcNAc(b1-3)GalNAc
# Summary of the method: as §1
# [13] = target: GlcNAc(b1-3)[GlcNAc(b1-4)][GlcNAc(b1-6)]GlcNAc
# Summary of the method: as §1
# [14] = target: GlcNAc(b1-3)[GlcNAc(b1-6)]Gal(b1-4)GlcNAc
# Summary of the method: as §1
# [15] = target: GlcNAc(b1-3)[GlcNAc(b1-6)]GlcNAc
# Summary of the method: as §1
# [16] = target: GlcNAc(b1-4)Gal(b1-4)GlcNAc
# Summary of the method: as §1
# [17] = target: GlcNAc(b1-4)GlcNAc(b1-4)GlcNAc
# Summary of the method: as §1
# [18] = target: GlcNAc(b1-4)GlcNAc(b1-4)GlcNAc(b1-4)GlcNAc(b1-4)GlcNAc
# Summary of the method: as §1
# [19] = target: GlcNAc(b1-4)GlcNAc(b1-4)GlcNAc(b1-4)GlcNAc(b1-4)GlcNAc(b1-4)GlcNAc
# Summary of the method: as §1
# [20] = target: GlcNAc(b1-4)[GlcNAc(b1-6)]GalNAc
# Summary of the method: as §1
# [21] = target: GlcNAc(b1-6)Gal(b1-4)GlcNAc
# Summary of the method: as §1
# GlcNAc(b1-6)GalNAc = target: GlcNAc(b1-6)GalNAc
# Summary of the method: as §1
# Kdn(a2-3)Gal(b1-3)GlcNAc = target: Kdn(a2-3)Gal(b1-3)GlcNAc
# Summary of the method: as §1
# Kdn(a2-3)Gal(b1-4)GlcNAc = target: Kdn(a2-3)Gal(b1-4)GlcNAc
# Summary of the method: as §1
# [22] = target: Man(a1-2)Man(a1-2)Man(a1-3)Man
# Summary of the method: as §1
# [23] = target: Man(a1-2)Man(a1-2)Man(a1-3)[Man(a1-2)Man(a1-3)[Man(a1-2)Man(a1-6)]Man(a1-6)]Man(b1-4)GlcNAc(b1-4)GlcNAc
# Summary of the method: as §1
# [24] = target: Man(a1-2)Man(a1-2)Man(a1-3)[Man(a1-2)Man(a1-6)[Man(a1-3)]Man(a1-6)]Man(b1-4)GlcNAc(b1-4)GlcNAc
# Summary of the method: as §1
# [25] = target: Man(a1-2)Man(a1-2)Man(a1-6)[Man(a1-3)]Man
# Summary of the method: as §1
# Man(a1-2)Man(a1-3)Man = target: Man(a1-2)Man(a1-3)Man
# Summary of the method: as §1
# [26] = target: Man(a1-2)Man(a1-3)[Man(a1-2)Man(a1-6)]Man
# Summary of the method: as §1
# [27] = target: Man(a1-2)Man(a1-3)[Man(a1-3)[Man(a1-6)]Man(a1-6)]Man(b1-4)GlcNAc(b1-4)GlcNAc
# Summary of the method: as §1
# [28] = target: Man(a1-2)Man(a1-3)[Man(a1-6)]Man(a1-6)[Man(a1-2)Man(a1-3)]Man(b1-4)GlcNAc(b1-4)GlcNAc
# Summary of the method: as §1
# Man(a1-3)[Man(a1-6)]Man = target: Man(a1-3)[Man(a1-6)]Man
# Summary of the method: as §1
binder,measurement,setting,value
B1,glycan array binding signal (z-score),[1],0.621
same,glycan array binding signal (z-score),[2],-0.54
same,glycan array binding signal (z-score),[3],-0.455
same,glycan array binding signal (z-score),Gal3S(b1-3)GalNAc,-0.526
same,glycan array binding signal (z-score),Gal3S(b1-3)GlcNAc,-0.518
same,glycan array binding signal (z-score),[4],-0.518
same,glycan array binding signal (z-score),Gal3S(b1-4)Glc,-0.511
same,glycan array binding signal (z-score),Gal3S(b1-4)Glc6S,-0.461
same,glycan array binding signal (z-score),Gal3S(b1-4)GlcNAc,1.76
same,glycan array binding signal (z-score),Gal3S(b1-4)GlcNAc6S,1.54
same,glycan array binding signal (z-score),Gal3S6S(b1-4)GlcNAc,-0.485
same,glycan array binding signal (z-score),Gal3S6S(b1-4)GlcNAc6S,-0.22
same,glycan array binding signal (z-score),Gal4S(b1-4)GlcNAc,2.18
same,glycan array binding signal (z-score),Gal4S6S(b1-4)GlcNAc,-0.461
same,glycan array binding signal (z-score),Gal6S(b1-4)Glc,-0.518
same,glycan array binding signal (z-score),Gal6S(b1-4)Glc6S,-0.441
same,glycan array binding signal (z-score),Gal6S(b1-4)GlcNAc,-0.444
same,glycan array binding signal (z-score),GalNAc(a1-3)Gal,-0.541
same,glycan array binding signal (z-score),GalNAc(a1-3)GalNAc,-0.553
same,glycan array binding signal (z-score),[5],2.55
same,glycan array binding signal (z-score),GalNAc(b1-4)GlcNAc,1.91
same,glycan array binding signal (z-score),Glc(a1-4)Glc,-0.525
same,glycan array binding signal (z-score),Glc(a1-6)Glc(a1-6)Glc,-0.531
same,glycan array binding signal (z-score),Glc(b1-4)Glc,-0.54
same,glycan array binding signal (z-score),Glc(b1-6)Glc,-0.059
same,glycan array binding signal (z-score),GlcA(b1-3)Gal,-0.547
same,glycan array binding signal (z-score),GlcA(b1-6)Gal,-0.555
same,glycan array binding signal (z-score),[6],2.03
same,glycan array binding signal (z-score),[7],-0.549
same,glycan array binding signal (z-score),[8],-0.555
same,glycan array binding signal (z-score),[9],-0.512
same,glycan array binding signal (z-score),GlcNAc(b1-3)Gal,-0.567
same,glycan array binding signal (z-score),[10],-0.526
same,glycan array binding signal (z-score),GlcNAc(b1-3)Gal(b1-4)Glc,-0.555
same,glycan array binding signal (z-score),[11],0.822
same,glycan array binding signal (z-score),[12],2.13
same,glycan array binding signal (z-score),GlcNAc(b1-3)GalNAc,-0.562
same,glycan array binding signal (z-score),[13],-0.551
same,glycan array binding signal (z-score),[14],-0.526
same,glycan array binding signal (z-score),[15],-0.566
same,glycan array binding signal (z-score),[16],1.96
same,glycan array binding signal (z-score),[17],1.38
same,glycan array binding signal (z-score),[18],2
same,glycan array binding signal (z-score),[19],2.26
same,glycan array binding signal (z-score),[20],-0.553
same,glycan array binding signal (z-score),[21],-0.492
same,glycan array binding signal (z-score),GlcNAc(b1-6)GalNAc,-0.545
same,glycan array binding signal (z-score),Kdn(a2-3)Gal(b1-3)GlcNAc,-0.443
same,glycan array binding signal (z-score),Kdn(a2-3)Gal(b1-4)GlcNAc,1.6
same,glycan array binding signal (z-score),[22],-0.419
same,glycan array binding signal (z-score),[23],-0.426
same,glycan array binding signal (z-score),[24],-0.336
same,glycan array binding signal (z-score),[25],-0.296
same,glycan array binding signal (z-score),Man(a1-2)Man(a1-3)Man,-0.54
same,glycan array binding signal (z-score),[26],-0.556
same,glycan array binding signal (z-score),[27],1.57
same,glycan array binding signal (z-score),[28],0.069
same,glycan array binding signal (z-score),Man(a1-3)[Man(a1-6)]Man,-0.539
